Data taken from PubChem BioAssay AID1159614 (National Center for Advancing Translational Sciences (NCATS), 2016).
In all, about 45,000 compounds went through this assay and about 65 (0.1%) were called active. Calls follow the shape of the dose curve; as a rule, active = well fitted activation curve with a large enough effect; inconclusive = small, poorly fitted or top-dose-only effect; inactive = no such curve, though single readings can be large or run the other way. Some of the results follow.

The molecules below were run against Galactocerebrosidase (Homo sapiens) (UniProt P54803) (assay: A Novel Cell-Based Assay to Identify Small Molecules for B -Galactocerebrosidase). Conditions: 145M-Twi-hGALC-G270D cells (Twitcher mouse brain line with human GALC G270D), HMU-beta-Gal fluorescence, 48 h; series mostly up to 57.5 µM; activation: at the top concentration.
Outline: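 Fluorogenic HMU-b-Gal hydrolysis (0.1 mM final, pH 5.2 citrate-phosphate with 1 mg/mL sodium taurocholate; carbonate stop buffer) measures mutant GALC activity after compound treatment of live 145M-Twi Twitcher brain cells stably carrying human GALC-G270D, with wild-type GALC line alongside; activation sought.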
Also: 0% is about no effect; nearly all actives have a fitted effect of over 65% in size.

UniProt P54803, sequence (P54803 whole entry, looked up): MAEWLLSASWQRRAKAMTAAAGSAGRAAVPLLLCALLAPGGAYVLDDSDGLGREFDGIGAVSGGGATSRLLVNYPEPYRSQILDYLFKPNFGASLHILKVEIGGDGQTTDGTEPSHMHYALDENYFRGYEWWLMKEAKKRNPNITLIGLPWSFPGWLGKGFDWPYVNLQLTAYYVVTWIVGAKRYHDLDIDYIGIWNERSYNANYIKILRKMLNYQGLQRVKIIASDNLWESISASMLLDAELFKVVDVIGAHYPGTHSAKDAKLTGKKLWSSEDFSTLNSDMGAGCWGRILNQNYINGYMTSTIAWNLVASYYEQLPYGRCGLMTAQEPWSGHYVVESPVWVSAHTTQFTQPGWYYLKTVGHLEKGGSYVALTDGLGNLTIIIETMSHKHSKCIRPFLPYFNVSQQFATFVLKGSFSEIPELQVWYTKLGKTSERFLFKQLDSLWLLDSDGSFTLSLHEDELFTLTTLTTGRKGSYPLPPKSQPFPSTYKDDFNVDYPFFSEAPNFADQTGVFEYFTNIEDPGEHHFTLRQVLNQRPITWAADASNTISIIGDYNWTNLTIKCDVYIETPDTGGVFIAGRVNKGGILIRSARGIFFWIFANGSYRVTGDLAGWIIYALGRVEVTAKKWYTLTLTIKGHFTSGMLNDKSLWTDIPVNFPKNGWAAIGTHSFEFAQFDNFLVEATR

SMILES | activation
CCCN1CCN(CCCNC(=O)c2cc3c(s2)-c2ccccc2OC3)CC1 | inactive: -3.9%
C[C@]12CC[C@@H]3c4ccc(O)cc4CC[C@H]3[C@@H]1CC[C@@H]2OC(=O)CCC1CCCC1 | inactive: -15.1%
CN(C)c1ccc(CNC(=O)CCCN2C(=O)CCn3nc(-c4cn(C)c5ccccc45)cc32)cc1 | inactive: -1.96%
COc1ccc(-c2nsc(NC(=O)c3oc4ccccc4c3C)n2)cc1 | inactive: -3.63%
CCn1cc(C(=O)N2CCN(c3cccc(C)c3)C(C)C2)c(=O)c2cc(S(=O)(=O)N3CCOCC3)ccc21 (stereo unspecified) | inactive: -10.9%
CCCNc1ncnc2c1c(-c1ccccc1)cn2-c1ccccc1 | inactive: -0.221%
CCc1cccc(-n2nnc(S(=O)(=O)c3ccc(OC)cc3)c2C)c1 | inactive: -47.1%
COCCn1c(C)cc(O)c(C(c2ccccc2F)N2CCN(c3ccccc3)CC2)c1=O (stereo unspecified) | inactive: -10.7%
COc1ccccc1CCNC(=O)C(=O)NCC(c1cccnc1)N1CCN(c2ccccc2)CC1 (stereo unspecified) | inactive: -2.03%
COc1ccc(C2=NN(CCC(=O)NCCc3ccccc3)C(=O)CC2)cc1 | inactive: -10.5%
COc1ccc(NC(=O)Cn2nnc(-c3nc(-c4ccncc4)no3)c2N)cc1OC | inactive: -11%
Cc1cccc(C)c1NC(=O)C1CCCN1S(=O)(=O)c1cccc2nsnc12 (stereo unspecified) | inactive: -18.2%
Cc1ccc(Cn2cc(CCC(=O)NCC(C)c3ccccc3)c3ccccc32)cc1 (stereo unspecified) | inactive: -41.4%
Cc1c(NS(=O)(=O)c2ccc(Cl)cc2)c(=O)n(-c2ccccc2)n1C | inactive: -11.7%
Cc1nc2c(c(C)c1CCC(=O)Nc1ccc(F)cc1)c(=O)n(C)c(=O)n2C | inactive: -16.1%
CCCN1C(=O)c2oc3cc(C)cc(C)c3c(=O)c2C1c1ccc(F)cc1 (stereo unspecified) | inactive: 6.17%
COc1ccc(-c2cc(C(F)(F)F)nc(SCC(=O)Nc3ccc(O)cc3)n2)cc1OC | inactive: -12.4%
Cc1ccc(C)c(NC(=O)c2cnc3sc(N4CCOCC4)nn3c2=O)c1 | inactive: 5.23%
CCN(CC)CCCNC(=O)CCc1c(C)nc2c(c1C)c(=O)n(C)c(=O)n2C | inactive: -6.02%
CCOc1ccc(CNC(=O)c2ccc(NC(=O)N3CCSc4ncccc43)cc2)cc1 | inactive: -7.46%
Cc1ccc(NC(=O)c2cccc(NC(=O)N3CCSc4ncccc43)c2)cc1F | inactive: -16.7%
COc1ccc(-c2nc3cc(NC(=O)COc4ccc(C)c(C)c4)ccc3o2)cc1 | inactive: -6%
Cc1cc(=O)c2cc(C(=O)Nc3cccc(C)c3C)ccc2[nH]1 | inactive: -13%
CCCCOCCOC(=O)c1cccnc1 | inactive: -11.9%

SMILES | activation
O=C(CCc1ccccc1)NCc1ccc2c(c1)CCN2C(=O)c1ccccc1 | inactive: -0.532%
COc1ccccc1-c1nnc(C2CCN(S(=O)(=O)c3ccc(CC(C)C)cc3)CC2)o1 | inactive: -0.241%
Nc1c(C(=O)Nc2ccc(C(F)(F)F)cc2)sc2nc(-c3cccs3)ccc12 | inactive: -11.3%
COc1ccc(-n2c(SCC(=O)c3ccc(Cl)cc3)nc3c([nH]c4ccccc43)c2=O)cc1 | inactive: -16.7%
COc1cccc(NC(=O)Cn2c(=O)n(-c3ccccc3)c(=O)c3ccc(C(=O)NCc4ccc5c(c4)OCO5)cc32)c1 | inactive: -14.1%
COc1ccccc1N1CCN(c2ccc(=O)n(CC(=O)Nc3cc(F)ccc3C)n2)CC1 | inactive: -6.46%
Cn1cc(C(=O)O)c(=O)c2cc(S(=O)(=O)N3CCOCC3)ccc21 | inactive: -50.4%
COc1ccccc1NC(=O)c1oc2ccccc2c1NC(=O)Cc1cccs1 | inactive: -9.65%
CC(=O)N1CCc2c(sc3c2c(=O)n(CCc2ccccc2)c(=O)n3CC(=O)Nc2ccccc2F)C1 | inactive: -24%
CCC(Cc1c(I)cc(I)c(N)c1I)C(=O)O (stereo unspecified) | inactive: -20.6%
Cc1ccc(N(CC(O)Cn2c3ccccc3c3ccccc32)S(=O)(=O)c2ccc(F)cc2)cc1 (stereo unspecified) | inactive: -12.2%
Cc1ccccc1Nc1sc(C(=O)c2ccccc2)c(N)c1S(C)(=O)=O | inactive: -11.6%
COc1ccc(CCNc2ncnc3onc(-c4ccc(Cl)cc4)c23)c(OC)c1 | inactive: -18.9%
CCc1ccc(NC(=O)CN2C(=O)C3CCCN3c3ccc(S(=O)(=O)N(CC)CC)cc32)cc1 (stereo unspecified) | inactive: -11.2%
Cn1cc(S(=O)(=O)N2CCCCCC2)cc1C(=O)N1CCN(c2ccccc2F)CC1 | inactive: -15%
Cc1ccc(-c2nc3cc(NC(=O)Cc4ccc(Cl)cc4)ccc3o2)cc1 | inactive: -2.16%
CCOC(=O)c1ccc(N2CC3=C(C2=O)C(c2ccc(OC)cc2)NC(=O)N3C)cc1 (stereo unspecified) | inactive: -13.4%
COc1ccc2c(Sc3ccc(C)cc3)c(C(=O)NCC(C)c3ccccc3)[nH]c2c1 (stereo unspecified) | inactive: -16.1%
CCc1ccc(NC(=O)Cn2c(=O)n(CCCC(=O)NCc3ccccc3Cl)c(=O)c3ccccc32)cc1 | inactive: -5.02%
Cc1cc(NC(=O)CSc2nc(-c3cccc(F)c3)nc3c2c(=O)n(C)c(=O)n3C)no1 | inactive: -11.9%
COc1ccccc1NC(=O)Cn1cnc2ccc(S(=O)(=O)N3CCC(C)CC3)cc2c1=O | inactive: -15.3%
COc1ccc2oc(=O)c(C(=O)NCCc3c(C)[nH]c4ccc(C)cc34)cc2c1 | inactive: -12.1%
Cc1ccc(CNC(=O)c2cc3c(=O)oc4ccc(C)cc4c3s2)cc1 | inactive: -26.3%
COc1ccccc1-c1nc2c(c(SCc3cc(C)ccc3C)n1)Cc1c(CO)cnc(C)c1O2 | inactive: -6.77%

SMILES | activation
COc1ccc(N(CC(=O)N2CCN(c3ccccc3F)CC2)S(=O)(=O)c2c(C)noc2C)cc1 | inactive: -4%
CCCNC(=O)Cn1nc(-c2ccc(C)c(C)c2)c2cnc3ccc(OC)cc3c21 | inactive: -16.3%
CN1CCc2cccc3c2[C@H]1Cc1ccc(O)c(O)c1-3 | inactive: -4.98%
O=C(Nc1noc2ccccc12)c1cccc(Cl)c1Cl | inactive: -9.6%
COc1ccc(CNCCC(c2ccc(C)cc2)c2ccco2)cc1 (stereo unspecified) | inactive: -18.1%
Cc1ccccc1NC(=O)C(Cc1ccccc1)N1Cc2ccccc2C1=O (stereo unspecified) | inactive: -6.75%
Cc1cccc(OCC(=O)Nc2ccc(S(=O)(=O)Nc3onc(C)c3C)cc2)c1C | inactive: 0.832%
Cc1nn(-c2ccccc2)c(-n2cccc2)c1C(=O)N1CCN(c2ccccc2)CC1 | inactive: -3.71%
CCOC(=O)c1ccc(OC(=O)c2cn(-c3ccc(C)cc3)c(=O)c3ccccc23)cc1 | inactive: -8.21%
Cc1cc(OCC(=O)N(Cc2ccc(N(C)C)cc2)Cc2ccco2)cc(C)c1Cl | inactive: -6.79%
COc1ccc(NC(=O)Cn2c(=O)n(Cc3ccco3)c(=O)c3sc4ccccc4c32)c(OC)c1 | inactive: -15.1%
CN(C)c1ccc(O)c2c1C[C@H]1C[C@H]3[C@H](N(C)C)C(=O)C(C(N)=O)=C(O)[C@@]3(O)C(=O)C1=C2O | inactive: -9.44%
Cc1ccc(NC(=O)C2CCCN(C(=O)c3cnn(-c4ccccc4)c3-n3cccc3)C2)cc1 (stereo unspecified) | inactive: -0.939%
COCCCN1C(=O)c2[nH]nc(-c3cc(C)ccc3O)c2C1c1ccc(F)cc1 (stereo unspecified) | inactive: -15.4%
COc1ccc(CNC(=O)c2cc3sccc3n2Cc2ccc(F)cc2)cc1 | inactive: -14.2%
Cc1c(Cl)cccc1NC(=O)c1cc(S(=O)(=O)N2CCCCC2)cn1C | inactive: -24.4%
CCc1nnc(NC(=O)CSc2nc3c([nH]c4ccccc43)c(=O)n2-c2ccc(F)cc2)s1 | inactive: -7.19%
Cc1ccc2oc(=O)c3cc(C(=O)Nc4ccc(C)c(F)c4)sc3c2c1 | inactive: -13.7%
COc1ccccc1/C=C/c1onc(C)c1S(=O)(=O)N1CCC(C(=O)N2CCC(C)CC2)CC1 | inactive: -13.4%
COC(=O)c1sccc1S(=O)(=O)N(CC(=O)Nc1ccccc1C)c1ccc(Cl)cc1 | inactive: -37.2%
Cc1ccccc1NC(=O)CSc1nc2ccc(NC(=O)CCc3ccccc3)cc2s1 | inactive: -20.6%
Nc1ccc2oc(-c3ccccc3Br)nc2c1 | inactive: -14.7%
Cc1ccc(-n2nc(C)c3c(C)cc(=O)n(CC(=O)Nc4cc(Cl)ccc4C)c32)cc1 | inactive: -19.6%
Cc1cccn2c(=O)cc(COc3ccc(NC(=O)C(C)C)cc3)nc12 | inactive: -11.5%

SMILES | activation
CCOC(=O)c1oc2ccc(S(=O)(=O)n3nc(-c4ccc(Br)cc4)cc3N)cc2c1C | inactive: -16.1%
COc1ccc(CNC(=O)c2c3c(nc4ccccc24)C(=O)N(C2CCCCC2)C3)cc1 | inactive: -10.2%
COC(=O)c1ccc(CSc2nc3c([nH]c4ccccc43)c(=O)n2-c2ccc(OC)cc2)o1 | inactive: -1.99%
COc1cccc(CNC(=O)c2nn(-c3ccc(C)cc3)c(=O)c3c2c2ccccc2n3C)c1 | inactive: -7.57%
O=C(Cc1ccccc1)NCCc1csc2nc(-c3ccc(Cl)cc3)nn12 | inactive: -11.2%
COc1ccc(Nc2nc(N)c3cc(OC)c(OC)cc3n2)cc1 | inactive: -24.4%
Brc1c(NC2=NCCN2)ccc2nccnc12 | inactive: -5.35%
CCOC(=O)c1scc(-c2ccccc2)c1S(=O)(=O)Nc1cc(Cl)c(OC)cc1OC | inactive: -3.95%
CC1CCc2c(sc(NC(=O)C3c4ccccc4Oc4ccccc43)c2C(=O)OC(C)C)C1 (stereo unspecified) | inactive: -6.09%
Cc1ccc(S(=O)(=O)NCc2nc(-c3cccc(C)c3)no2)cc1 | inactive: -32%
COc1ccc(C2CC(=O)N(Cc3cccc(F)c3)c3ccccc3S2)cc1 (stereo unspecified) | inactive: -33.2%
COc1ccccc1Nc1nn2c(=O)c3ccc(C(=O)N4CCCC(C)C4)cc3nc2s1 (stereo unspecified) | inactive: -6.48%
Cc1ccc(-n2nc(C)c3c(C(=O)NCc4ccccc4)cc(C4CC4)nc32)cc1 | inactive: -12.5%
COc1ccccc1CNS(=O)(=O)c1ccc2c(c1)NC(=O)CC(=O)N2 | inactive: -13.4%
CN(C)CCOC(=O)COc1ccc(Cl)cc1 | inactive: -13.1%
COc1ccc(C(=O)Nc2nnc(S(=O)(=O)N(CC(C)C)c3ccc(C)cc3)s2)cc1OC | inactive: -14.5%
O=C(CSc1nc(=O)n(CCN2CCOCC2)c2c1CCC2)Nc1ccccc1 | inactive: -7.78%
COCCCNC(=O)c1ccc2c(c1)N(Cc1ccccc1)C(=O)c1ccccc1S2 | inactive: -29.8%
COc1ccccc1CNC(=O)CCCn1c(=O)c2ccccc2n(CC(=O)Nc2c(C)cc(C)cc2C)c1=O | inactive: -15.2%
CCn1cc(C(=O)NCc2ccccc2Cl)c(=O)c2cc(S(=O)(=O)N3CCc4ccccc4C3)ccc21 | inactive: -11.7%
CCOC(=O)c1cccnc1 | inactive: -12.5%
CCOC(=O)c1sc(NC(=O)C2c3ccccc3Oc3ccccc32)c(C(=O)OCC)c1C | inactive: -6.43%
COc1ccc(NC(=O)CSc2nnc(NC(=O)Nc3ccccc3)s2)cc1OC | inactive: -7.35%
Cc1ccccc1Nc1nc(-c2cccc(Cl)c2)c2c(n1)-c1ccccc1OC2 | inactive: -7.06%
